Test results: US5534494A, “Polypeptide compounds having growth hormone releasing activity” (Polygen Holding Corporation, priority 1994, dated 1996)
Part of at least one peptide drawing is inferred or uncertain, most often the ends. Square brackets hold non-standard residues; d marks the D form. Peptide text beside a SMILES is read from it.

Columns and labels:
GH release [1] = assay: In vivo growth hormone release study in lactating dairy cows (plasma GH by RIA); design: species or system Holstein cows; conditions: for Log (GH AUC) / GH AUC: bolus i.v.; for Log (GH AUC): AUC over 180 min; for GH AUC: area under the curve over 180 min, corrected for molecular weight
GH release [2] = assay: In vivo GH release in pentobarbital anesthetized rats (serum GH by RIA); design: species or system Sprague-Dawley rats; conditions: 10 min after injection, six rats
GH release [3] = assay: In vivo GH release in unanesthetized rats, single peptides and combinations (synergistic effects); conditions: single compound, control 12 ± 3
[4] = total dose 0.1 μg i.v., control GH 287 ± 36, mean ± SEM
[5] = total dose 0.3 μg i.v., control GH 287 ± 36, mean ± SEM
[6] = total dose 1.0 μg i.v., control GH 287 ± 36, mean ± SEM
[7] = total dose 3.0 μg i.v., control GH 287 ± 36, mean ± SEM
[8] = total dose 0.1 μg i.v., control GH 239 ± 36, mean ± SEM
[9] = total dose 0.3 μg i.v., control GH 239 ± 36, mean ± SEM
[10] = total dose 1.0 μg i.v., control GH 239 ± 36, mean ± SEM
[11] = total dose 3.0 μg i.v., control GH 239 ± 36, mean ± SEM
[12] = total dose 1.0 μg i.v., control GH 220 ± 29, mean ± SEM
[13] = total dose 10.0 μg i.v., control GH 220 ± 29, mean ± SEM
[14] = total dose 30.0 μg i.v., control GH 220 ± 29, mean ± SEM

C[C@H](NC(=O)[C@@H](Cc1c[nH]c2ccccc12)NC(=O)[C@H](Cc1c[nH]cn1)NC(=O)[C@@H](N)CCCCN)C(=O)N[C@@H](Cc1c[nH]c2ccccc12)C(=O)N[C@H](Cc1ccccc1)C(=O)N[C@@H](CCCCN)C(N)=O [Lys--His--DTrp--Ala--Trp--DPhe--Lys--NH2, reference compound] (H-KH[dW]AW[dF]K-NH2)
Log (GH AUC) (GH release [1]; 3 mcg/kg body weight): 6.72 | GH AUC (GH release [1]; 3 mcg/kg body weight): 795 ng·min/mL | Log (GH AUC) (GH release [1]; 9 mcg/kg body weight): 7.81 | GH AUC (GH release [1]; 9 mcg/kg body weight): 3,129 ng-min/mL | GH Released by Compound in Column A (GH release [2]; [4]): 430 ± 89 ng/mL | GH Released by Compound in Column A (GH release [2]; [5]): 569 ± 106 ng/mL | GH Released by Compound in Column A (GH release [2]; [6]): 1561 ± 252 ng/mL | GH Released by Compound in Column A (GH release [2]; [7]): 2303 ± 104 ng/mL

C[C@H](NC(=O)[C@@H](Cc1c[nH]c2ccccc12)NC(=O)[C@@H]1CCCN1C(=O)[C@@H](N)Cc1c[nH]cn1)C(=O)N[C@@H](Cc1c[nH]c2ccccc12)C(=O)N[C@H](Cc1ccccc1)C(=O)N[C@@H](CCCCN)C(N)=O [His--Pro--DTrp--Ala--Trp--DPhe--Lys--NH2] (H-HP[dW]AW[dF]K-NH2)
GH Released by Compound in Column A (GH release [2]; [8]): 406 ± 40 ng/mL | GH Released by Compound in Column A (GH release [2]; [9]): 334 ± 26 ng/mL | GH Released by Compound in Column A (GH release [2]; [10]): 258 ± 29 ng/mL | GH Released by Compound in Column A (GH release [2]; [11]): 294 ± 64 ng/mL

C[C@H](NC(=O)[C@@H](Cc1c[nH]c2ccccc12)NC(=O)[C@H](CCC(N)=O)NC(=O)[C@@H](N)Cc1c[nH]cn1)C(=O)N[C@@H](Cc1c[nH]c2ccccc12)C(=O)N[C@H](Cc1ccccc1)C(=O)N[C@@H](CCCCN)C(N)=O [His--Gln--DTrp--Ala--Trp--DPhe--Lys--NH2] (H-HQ[dW]AW[dF]K-NH2)
GH Released by Compound in Column A (GH release [2]; [12]): 693 ± 245 ng/mL | GH Released by Compound in Column A (GH release [2]; [13]): 373 ± 75 ng/mL | GH Released by Compound in Column A (GH release [2]; [14]): 832 ± 148 ng/mL

C[C@H](NC(=O)[C@@H](Cc1c[nH]c2ccccc12)NC(=O)[C@@H](C)NC(=O)[C@@H](N)Cc1c[nH]cn1)C(=O)N[C@@H](Cc1c[nH]c2ccccc12)C(=O)N[C@H](Cc1ccccc1)C(=O)N[C@@H](CCCCN)C(N)=O [His--DAla--DTrp--Ala--Trp--DPhe--Lys--NH2] (H-H[dA][dW]AW[dF]K-NH2)
GH Released by Compound in Column A (GH release [2]; [8]): 296 ± 49 ng/mL | GH Released by Compound in Column A (GH release [2]; [9]): 241 ± 26 ng/mL | GH Released by Compound in Column A (GH release [2]; [10]): 470 ± 105 ng/mL | GH Released by Compound in Column A (GH release [2]; [11]): 402 ± 64 ng/mL

C[C@H](N)C(=O)N[C@@H](Cc1c[nH]cn1)C(=O)N[C@H](Cc1c[nH]c2ccccc12)C(=O)N[C@@H](C)C(=O)N[C@@H](Cc1c[nH]c2ccccc12)C(=O)N[C@H](Cc1ccccc1)C(=O)N[C@@H](CCCCN)C(N)=O [Ala--His--DTrp--Ala--Trp--DPhe--Lys--NH2, reference compound] (H-AH[dW]AW[dF]K-NH2)
GH Released by Compound in Column A (GH release [2]; [4]): 497 ± 88 ng/mL | GH Released by Compound in Column A (GH release [2]; [5]): 714 ± 57 ng/mL | GH Released by Compound in Column A (GH release [2]; [6]): 1422 ± 321 ng/mL | GH Released by Compound in Column A (GH release [2]; [7]): 1616 ± 418 ng/mL

C[C@H](NC(=O)[C@@H](Cc1c[nH]c2ccccc12)NC(=O)[C@H](CO)NC(=O)[C@@H](N)Cc1c[nH]cn1)C(=O)N[C@@H](Cc1c[nH]c2ccccc12)C(=O)N[C@H](Cc1ccccc1)C(=O)N[C@@H](CCCCN)C(N)=O [His--Ser--DTrp--Ala--Trp--DPhe--Lys--NH2] (H-HS[dW]AW[dF]K-NH2)
GH Released by Compound in Column A (GH release [2]; [12]): 389 ± 146 ng/mL | GH Released by Compound in Column A (GH release [2]; [13]): 1458 ± 277 ng/mL | GH Released by Compound in Column A (GH release [2]; total dose 10.0 μg i.v., control GH 239 ± 36, mean ± SEM): 1420 ± 222 ng/mL | GH Released by Compound in Column A (GH release [2]; [14]): 5716 ± 211 ng/mL | GH Released by Compound in Column A (GH release [2]; total dose 30.0 μg i.v., control GH 239 ± 36, mean ± SEM): 3292 ± 474 ng/mL

C[C@H](NC(=O)[C@@H](N)Cc1c[nH]cn1)C(=O)N[C@H](Cc1c[nH]c2ccccc12)C(=O)N[C@@H](C)C(=O)N[C@@H](Cc1c[nH]c2ccccc12)C(=O)N[C@H](Cc1ccccc1)C(=O)N[C@@H](CCCCN)C(N)=O [His--Ala--DTrp--Ala--Trp--DPhe--Lys--NH2] (H-HA[dW]AW[dF]K-NH2)
GH Released (GH release [3]; dose 10 μg): 111 ± 26 mg/mL | Log (GH AUC) (GH release [1]; 3 mcg/kg body weight): 6.11 | GH AUC (GH release [1]; 3 mcg/kg body weight): 1,107 ng-min/mL | Log (GH AUC) (GH release [1]; 9 mcg/kg body weight): 7.04 | GH AUC (GH release [1]; 9 mcg/kg body weight): 2,431 ng-min/mL | level of growth hormone release relative to previously disclosed growth hormone releasing peptides (GH release [1]; result in words): greater than or equal to the levels observed with previously disclosed novel growth hormone releasing peptides | release and elevation of growth hormone levels in the blood (GH release [1]; result in words): promote the release and elevation of growth hormone levels | GH Released by Compound in Column A (GH release [2]; total dose 3.0 μg i.v., control GH 111 ± 25, mean ± SEM): 2588 ± 341 ng/mL

C[C@H](NC(=O)[C@@H](Cc1c[nH]c2ccccc12)NC(=O)[C@@H](N)Cc1c[nH]cn1)C(=O)N[C@@H](Cc1c[nH]c2ccccc12)C(=O)N[C@H](Cc1ccccc1)C(=O)N[C@@H](CCCCN)C(N)=O [Comparison Compound, His--DTrp--Ala--Trp--DPhe--Lys--NH2] (H-H[dW]AW[dF]K-NH2)
GH Released (GH release [3]; dose 10 μg): 204 ± 51 mg/mL | Log (GH AUC) (GH release [1]; 3 mcg/kg body weight): 6.86 | GH AUC (GH release [1]; 3 mcg/kg body weight): 1,485 ng-min/mL | Log (GH AUC) (GH release [1]; 9 mcg/kg body weight): 7.82 | GH AUC (GH release [1]; 9 mcg/kg body weight): 3,734 ng-min/mL

CC(C)C[C@H](NC(=O)[C@@H](N)Cc1c[nH]cn1)C(=O)N[C@H](Cc1c[nH]c2ccccc12)C(=O)N[C@@H](C)C(=O)N[C@@H](Cc1c[nH]c2ccccc12)C(=O)N[C@H](Cc1ccccc1)C(=O)N[C@@H](CCCCN)C(N)=O [His--Leu--DTrp--Ala--Trp--DPhe--Lys--NH2] (H-HL[dW]AW[dF]K-NH2)
GH Released by Compound in Column A (GH release [2]; [8]): 292 ± 19 ng/mL | GH Released by Compound in Column A (GH release [2]; [9]): 466 ± 70 ng/mL | GH Released by Compound in Column A (GH release [2]; [10]): 369 ± 59 ng/mL | GH Released by Compound in Column A (GH release [2]; [11]): 426 ± 88 ng/mL

C[C@H](NC(=O)[C@@H](Cc1c[nH]c2ccccc12)NC(=O)[C@H](CC(=O)O)NC(=O)[C@@H](N)Cc1c[nH]cn1)C(=O)N[C@@H](Cc1c[nH]c2ccccc12)C(=O)N[C@H](Cc1ccccc1)C(=O)N[C@@H](CCCCN)C(N)=O [His--Asp--DTrp--Ala--Trp--DPhe--Lys--NH2] (H-HD[dW]AW[dF]K-NH2)
GH Released by Compound in Column A (GH release [2]; [8]): 263 ± 54 ng/mL | GH Released by Compound in Column A (GH release [2]; [9]): 228 ± 105 ng/mL | GH Released by Compound in Column A (GH release [2]; [10]): 309 ± 38 ng/mL | GH Released by Compound in Column A (GH release [2]; [11]): 298 ± 50 ng/mL

CCCC[C@H](NC(=O)[C@@H](NC(=O)[C@H](CC(=O)O)NC(=O)[C@H](CCC(N)=O)NC(=O)[C@H](CC(C)C)NC(=O)[C@H](CC(C)C)NC(=O)[C@H](CCCCN)NC(=O)[C@H](CCCNC(=N)N)NC(=O)[C@H](C)NC(=O)[C@H](CO)NC(=O)[C@H](CC(C)C)NC(=O)[C@H](CCC(N)=O)NC(=O)CNC(=O)[C@H](CC(C)C)NC(=O)[C@@H](NC(=O)[C@H](CCCCN)NC(=O)[C@H](CCCNC(=N)N)NC(=O)[C@H](Cc1ccc(O)cc1)NC(=O)[C@H](CO)NC(=O)[C@H](CC(N)=O)NC(=O)[C@@H](NC(=O)[C@H](Cc1ccccc1)NC(=O)[C@@H](NC(=O)[C@H](C)NC(=O)[C@H](CC(=O)O)NC(=O)[C@H](C)NC(=O)[C@@H](N)Cc1ccc(O)cc1)[C@@H](C)CC)[C@@H](C)O)C(C)C)[C@@H](C)CC)C(=O)N[C@@H](CO)C(=O)N[C@@H](CCCNC(=N)N)C(N)=O [Group 1 Compound, Tyr--Ala--Asp--Ala--Ile--Phe--Thr--Asn--Ser--Tyr--Arg--Lys--Val--Leu--Gly-Gln--Leu--Ser--Ala--Arg--Lys--Leu--Leu--Gln--Asp--Ile--Nle--Ser--Arg--NH.ub.2]
GH Released (GH release [3]; dose 3 μg): 131 ± 50 mg/mL
